Out of some 410,000 compounds screened, about 6,400 (1.6%) were called active. Inconclusive means that the source gave no clear call. Such entries were picked first, then a sample of the others. Calls come from the whole dose curve; as a rule, active = well fitted inhibition curve with a large enough effect; inconclusive = small, poorly fitted or top-dose-only effect; inactive = no such curve, though single readings can be large or run the other way. Potencies of inconclusive entries are left out as doubtful fits.
target: Glucagon-like peptide 1 receptor (Homo sapiens) (UniProt P43220); assay: qHTS of GLP-1 Receptor Inverse Agonists (Inhibition Mode); settings: HEK293 GLP-1R CRE-luciferase, luminescence, 24 h, GLP-1R form is constitutively active; activity change, negative = inhibition: at 38.3 µM (top of the series) unless noted; note: nearly all actives have a fitted effect of over 55% in size
UniProt P43220, sequence (P43220 whole entry, looked up): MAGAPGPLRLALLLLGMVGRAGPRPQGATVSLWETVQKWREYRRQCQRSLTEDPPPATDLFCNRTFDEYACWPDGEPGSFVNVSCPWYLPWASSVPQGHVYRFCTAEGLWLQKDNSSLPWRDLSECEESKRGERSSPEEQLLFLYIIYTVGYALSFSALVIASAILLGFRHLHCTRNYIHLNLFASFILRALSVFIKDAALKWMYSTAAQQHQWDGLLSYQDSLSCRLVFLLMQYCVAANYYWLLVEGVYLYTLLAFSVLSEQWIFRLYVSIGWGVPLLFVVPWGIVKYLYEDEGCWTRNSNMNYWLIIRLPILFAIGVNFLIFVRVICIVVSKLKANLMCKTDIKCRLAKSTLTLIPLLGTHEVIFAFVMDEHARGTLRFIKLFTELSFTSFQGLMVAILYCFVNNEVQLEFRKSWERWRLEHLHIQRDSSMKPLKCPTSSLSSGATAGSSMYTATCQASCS
Outline: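 Assay principle: reduced luminescence from a cAMP-responsive reporter in HEK293 cells co-expressing a constitutively active GLP-1R. Conditions: 24 hr compound incubation, 37 deg C, 5% CO2.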
% is set by controls: 0 for no effect and ±100 for the full control effect; potency is the fitted concentration of half-maximal effect; tags give direction and shape of the fitted curve.

Row | Structure (SMILES) | Potency | activity change, negative = inhibition
1 | C=CCn1c(C)cc(C(=O)CSc2nnc3c(Cl)cc(Cl)cn23)c1C | inconclusive [inhibitor, single point] | 
2 | COc1cc2nc(NCc3ccccc3)n3nc(-c4ccccc4)nc3c2cc1OC | inactive | 
3 | CCOC(=O)Cc1ccc(NC(=O)N2CC(C)Oc3ccc(Cl)cc32)cc1 (stereo not given) | inconclusive [inhibitor, single point] | 
4 | N#Cc1ccc(-c2ccc(F)cc2)nc1Oc1ccc(Cl)c(Cl)c1 | inactive | 
5 | CC1(C)N=C(N)N=C(N)N1c1ccc(OCC(=O)N2CCOCC2)cc1 | inactive | 
6 | O=S(=O)(Nc1ccccc1N1CCCCC1)c1ccccc1 | inconclusive [inhibitor, partial curve, poor fit] | 
7 | CC(C)(C)OC(=O)N[C@@H](Cc1ccccc1)c1nnc(S(=O)(=O)Cc2cccc(F)c2)o1 | inconclusive [inhibitor, single point] | 
8 | Cc1nc2cc(-c3ccccc3)nn2c(C)c1CCC(=O)NCc1cccc(Cl)c1 | inactive | 
9 | Cc1ccc(CNC(=O)CN(c2cc(C)cc(C)c2)S(=O)(=O)c2c(C)noc2C)cc1 | inconclusive [inhibitor, single point] | 
10 | OCC1(Cc2ccc(Cl)cc2)CCN(CC2CC=CCC2)CC1 (stereo not given) | inconclusive [inhibitor, partial curve, poor fit] | 
11 | Cc1cc(C)c(C)c(OCC(=O)O/N=C(\N)c2ccccn2)c1 | inconclusive [inhibitor, single point] | 
12 | Oc1ccc(Br)cc1-c1cc(-c2ccccc2Cl)[nH]n1 | inconclusive [inhibitor, partial curve, poor fit] | 
13 | O=c1c2cc(NC(=S)NCCN3CCCCCC3)ccc2nc2n1CCCCC2 | inconclusive [inhibitor, partial curve, poor fit] | 
14 | O=C(CSc1cn(CC(=O)N2CCCC2)c2ccccc12)Nc1ccccc1C(F)(F)F | inconclusive [inhibitor, partial curve, poor fit] | 
15 | Cc1cccc(Cn2c(=O)n(CC3CCC(C(=O)N4CCC(C)CC4)CC3)c(=O)c3sccc32)c1 (stereo not given) | inactive | 
16 | OCCN1CCN(CC/C=C2/c3ccccc3Sc3ccc(Cl)cc32)CC1 | inconclusive [inhibitor, full curve] | 
17 | Clc1ccccc1Nc1ncnc2c1nc1n2CCCCC1 | inactive | 
18 | O=C(Nc1ccccc1F)c1ccccc1-c1ccc(C(F)(F)F)cc1 | inconclusive [inhibitor, partial curve, poor fit] | 
19 | COc1ccc2[nH]c3c(c2c1)CCN1C(=O)C(CC(=O)NCc2cccc(C(F)(F)F)c2)C[C@H](C(=O)N(C(C)C)C(C)C)[C@@]31C (stereo not given in full) | inconclusive [inhibitor, partial curve] | 
20 | Fc1cccc(Cc2c(-c3cccc(Br)c3)nc3ccc(Br)cn23)c1 | inconclusive [inhibitor, single point] | 
21 | Cc1cc(Nc2ccc(C)c(Cl)c2)nc(N2CCOCC2)n1 | inconclusive [inhibitor, full curve, poor fit] | 
22 | COc1ccc(C2C(C(=O)Nc3ccccc3)=C(C)Nc3nc(-c4ccccc4Cl)nn32)cc1OC (stereo not given) | inactive | 

Row | Structure (SMILES) | Potency | activity change, negative = inhibition
23 | Cc1nn(Cc2c(F)c(F)c(F)c(F)c2F)c(C)c1NC(=O)c1c(-c2ccccc2)nn(-c2ccccc2)c1C | inactive | 
24 | COc1cccc(CN(C)CC(=O)NCc2ccccc2Cl)c1OC | inconclusive [inhibitor, single point] | 
25 | Cc1cccc(OC(=O)C2C(c3ccccc3)C(C(=O)O)C2c2ccccc2)c1 (stereo not given) | inconclusive [inhibitor, single point] | 
26 | Cc1ccccc1-c1ocnc1C(=O)Nc1ccccc1NC(=O)c1ccccn1 | active: 3.98 µM | 
27 | CCOC(=O)c1scc(-c2ccc(C)cc2)c1S(=O)(=O)Nc1ccc(OC)c(Cl)c1 | inconclusive [inhibitor, partial curve, poor fit] | 
28 | O=C(Cc1c(F)cccc1Cl)Nc1ccc(S(=O)(=O)NCC2CCCO2)cc1 (stereo not given) | inconclusive [inhibitor, single point] | 
29 | CCN(CC)CCN1C(=O)c2oc3ccccc3c(=O)c2C1c1ccc(C)cc1 (stereo not given) | inconclusive [inhibitor, partial curve, poor fit] | 
30 | Cc1cccc(Cn2cccc2CNS(=O)(=O)c2ccc(C)c(C)c2)c1 | inconclusive [inhibitor, partial curve, poor fit] | 
31 | O=C(c1[nH]c(C(F)(F)F)nc1-c1ccccc1)N1CCN(c2cccc(C(F)(F)F)n2)CC1 | inconclusive [inhibitor, full curve, poor fit] | 
32 | OC[C@@H]1[C@@H](c2ccccc2)C(c2ccc(F)cc2)=NN1c1ccccc1 | inconclusive [inhibitor, single point] | 
33 | CCCCN(Cc1ccco1)C(=O)Cn1ncc2c([nH]c3ccccc32)c1=O | inconclusive [inhibitor, single point] | 
34 | CN1CCSc2ccc(C(=O)NCc3ccccc3)cc21 | inconclusive [inhibitor, single point] | 
35 | CCOC(=O)c1cc(NC(=O)Nc2ccc(Br)cc2)c(C)nc1C | inconclusive [inhibitor, partial curve, poor fit] | 
36 | COc1ccc(CC(=O)NCc2ccc3c(c2)CCN3C(=O)c2cccc(C)c2)cc1 | inconclusive [inhibitor, partial curve, poor fit] | 
37 | COc1ccc(OCC(O)CNC(=O)Nc2cccc3ccccc23)cc1 (stereo not given) | inconclusive [inhibitor, single point] | 
38 | Cc1ccc(-n2cnc3cc(C(=O)NCc4ccccc4Cl)ccc32)c(C)c1 | inconclusive [inhibitor, single point] | 
39 | COc1cccc(NC(=O)Nc2ccc3c(c2)N(C)C(=O)CS3)c1 | inconclusive [inhibitor, partial curve, poor fit] | 
40 | O=C(COC(=O)c1cccc(C(F)(F)F)c1)NC(=O)NC1CCCC1 | inconclusive [inhibitor, partial curve, poor fit] | 
41 | O=C(c1cccs1)N1C[C@@H](O)[C@H](n2cc(-c3ccc(F)cc3)nn2)C[C@@H]1c1ccccc1 | inconclusive [inhibitor, partial curve, poor fit] | 
42 | COc1ccc(C(=O)N(C)CC2CCN(CCc3cccc(C(F)(F)F)c3)CC2)cc1C | inconclusive [inhibitor, single point] | 
43 | CCn1cc(Cl)c(C(=O)Nc2nccs2)n1 | inactive | 
44 | Cc1ccc(OCc2nc(C#N)c(N3CCCC3)o2)cc1 | inconclusive [inhibitor, single point] | 

Row | Structure (SMILES) | Potency | activity change, negative = inhibition
45 | C/C(CC(=O)Nc1ccc(Cl)c(C(F)(F)F)c1)=N\NC(=O)c1cnccn1 | inconclusive [inhibitor, partial curve, poor fit] | 
46 | c1ccc(COc2ccc(OCCCCN3CCCC3)cc2)cc1 | active: 11.2 µM | 
47 | C=CCSc1ncccc1C(=O)NCCc1ccc(Cl)cc1 |  | inconclusive: -40.2% [inhibitor]
48 | O=C(/C=C/c1ccco1)NCC1CCCO1 (stereo not given) | inactive | 
49 | CSc1ccccc1NC(=O)CN(C)C(=O)Cn1c(=O)oc2ccccc21 | inconclusive [inhibitor, single point] | 
50 | CCN1CCN(c2nc(-c3ccccc3)nc3ccccc23)CC1 | inconclusive [inhibitor, single point] | 
51 | Cc1ccsc1C(=O)OCC(=O)N1CCc2ccccc2C1 | inconclusive [inhibitor, partial curve, poor fit] | 
52 | Cc1cc(CN2CCCCC2C(=O)Nc2ccc(Oc3cccnc3)cc2)oc1C (stereo not given) | inconclusive [inhibitor, single point] | 
53 | CC(=O)c1nn(-c2cccc(Cl)c2)cc1C(=O)c1ccco1 | inconclusive [inhibitor, partial curve] | 
54 | O=C(/C(=N/N=C/c1ccc(O)c(O)c1O)c1ccccc1)c1ccccc1 | inconclusive [inhibitor, single point] | 
55 | COCCNC(=O)/C(C#N)=C/c1ccc(O)c([N+](=O)[O-])c1 | inactive | 
56 | CN1CCCC(C)(C(=O)Nc2cccc(Oc3ccccc3)c2)C1 (stereo not given) | active: 12.6 µM | 
57 | O=C(CNC1CCCCC1)Nc1cc(S(=O)(=O)N2CCOCC2)ccc1Cl | inconclusive [inhibitor, single point] | 
58 | CC1(C)CC(c2nc(-c3ccc(Br)cc3)cs2)CCS1 (stereo not given) | inconclusive [inhibitor, single point] | 
59 | Cc1ccc(NC(=O)NCc2ccccn2)cc1Cl | inactive | 
60 | CCCCCN(C(=O)NC(=O)Nc1ccccc1C)S(=O)(=O)c1ccccc1 | inconclusive [inhibitor, single point] | 
61 | NC(=S)NN=Cc1nccc2c(C(F)(F)F)cccc12 | active: 1.26 µM | 
62 | CCCC(NC(=O)C(C)N1CCN(S(=O)(=O)c2ccccc2)CC1)c1ccccc1 (stereo not given) | inconclusive [inhibitor, single point] | 
63 | Cc1ccc(NC(=O)C(C)OC(=O)CCNS(=O)(=O)c2ccc(C)cc2)cc1 (stereo not given) | inactive | 
64 | CCc1nn(CCCC(=O)N2CCN(c3cccc(C)c3C)CC2)c(=O)c2cc3occc3n12 | active: 11.2 µM | 
65 | O=C(Oc1ccccc1)c1ccc(-n2cnnn2)cc1 | inconclusive [inhibitor, single point] | 
